Reference: PubChem BioAssay AID1347073 (National Center for Advancing Translational Sciences (NCATS), 2019)
Screen size: about 45,000 compounds; about 200 (0.44%) were called active. About 7% were inconclusive and are not listed. Calls come from the whole dose curve; as a rule, active = well fitted activation curve with a large enough effect; inconclusive = small, poorly fitted or top-dose-only effect; inactive = no such curve, though single readings can be large or run the other way. Some of the results follow.

Assay: qHTS of TDP-43 Inhibitors: NCGC Sytravon Library Screen; note: 0% is about no effect; nearly all actives have a fitted effect of over 55% in size
Details: yeast TDP-43 toxicity rescue, BacTiter-Glo growth, 24 h; series mostly up to 46.1 µM; growth rescue (activation): at the top concentration
Outline: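 TDP-43-expressing yeast, pregrown in raffinose, seeded at OD600 0.02 in galactose medium with compound for 24 hr at 30 deg C. Growth read by BacTiter-Glo luminescence, so rescue of toxicity appears as activation.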
In the case of `Cc1cc(C)c(NC(=O)C(C)(C)C)c(Cl)c1`, the “growth rescue (activation)” value is reported as inactive: -10.6%.
In the case of `CCOC(=O)C1C(c2ccccc2)N(C)OC1(O)C(F)(F)F` (configuration not stated), the “growth rescue (activation)” value is reported as inactive: -0.681%.
With `Cc1cc[n+](-c2[nH]c(=O)sc2/C=N/N=C(\[O-])CCn2c3ccccc3c3ccccc32)cc1` the “growth rescue (activation)” value was inactive: 17.9%.
For `O=C(CSc1nc2ncc(Cl)cc2[nH]1)N1CCOCC1`, the “growth rescue (activation)” value was inactive: 10.8%.
With `O=C(NNC(=S)Nc1ccc(Cl)cc1Cl)c1ccncc1` the “growth rescue (activation)” value was inactive: 17.7%.
With `CN(CCC#N)C(=O)COC(=O)c1ccc(CNS(=O)(=O)c2ccc(F)c(Cl)c2)cc1` the “growth rescue (activation)” value was inactive: 10.1%.
For `O=C(OCC(=O)N1CCCC1)c1cc(Cl)ccc1Cl`, the “growth rescue (activation)” value was inactive: 8.48%.
For `Fc1ccc(-c2cc(-c3ccccc3)nc(-n3cccn3)n2)cc1`, the “growth rescue (activation)” value was inactive: 12%.
In the case of `Cc1ccc(CNC(=O)COC(=O)Cn2nc(C)c([N+](=O)[O-])c2C)cc1`, the “growth rescue (activation)” value is reported as inactive: 7.02%.
In the case of `O=C(Cn1cc(C(F)(F)F)ccc1=O)Nc1ccccc1`, the “growth rescue (activation)” value is reported as inactive: 24.7%.
In the case of `O=C(COC(=O)/C=C/c1cccc(F)c1)Nc1ccccc1`, the “growth rescue (activation)” value is reported as inactive: -4.85%.
For `CCc1ccc(N(C(C)=O)c2nc(CCl)cs2)cc1`, the “growth rescue (activation)” value was inactive: 12.7%.
In the case of `CC1CCCN(C(=O)C2CCN(CCCc3ccccc3)CC2)C1` (configuration not stated), the “growth rescue (activation)” value is reported as inactive: 11.7%.
For `COc1ccc(-n2nnnc2SCC(=O)NNC(=O)c2ccc([N+](=O)[O-])cc2)cc1`, the “growth rescue (activation)” value was inactive: -25.2%.
With `O=C(COC(=O)c1cncc(Br)c1)NC1CCCCCC1` the “growth rescue (activation)” value was inactive: 9.82%.
For `CC1=C(C(=O)OCC2CCCO2)C(c2ccsc2)C2=C(CC(C)(C)CC2=O)N1` (configuration not stated), the “growth rescue (activation)” value was inactive: 4.67%.
With `COCCNC(=S)N1CCN(c2nc(-c3cccc(OC)c3)cs2)CC1` the “growth rescue (activation)” value was inactive: 24.7%.
For `CCOCCn1c(CN2CCN(C(c3ccccc3)c3ccccc3)CC2)nc2c1c(=O)n(C)c(=O)n2C`, the “growth rescue (activation)” value was inactive: -2.76%.
For `COc1ccccc1NS(=O)(=O)c1ccc(NC(=O)N2CCCCC2)cc1`, the “growth rescue (activation)” value was inactive: 9.47%.
For `O=C(NC1CCN(C(=O)Nc2ccc(F)cc2)CC1)c1cccc(F)c1`, the “growth rescue (activation)” value was inactive: 3.76%.
With `Cc1ccc(S(=O)(=O)/N=C(\Nc2cccc(C)c2)Nc2nc(C)cc(C)n2)cc1` the “growth rescue (activation)” value was inactive: -1.39%.
For `Cc1sc2ncnc(NCC(O)c3ccccc3)c2c1C` (configuration not stated), the “growth rescue (activation)” value was inactive: 25.4%.
In the case of `COC(=O)CC(c1ccc(F)cc1)n1c(C)ccc1C` (configuration not stated), the “growth rescue (activation)” value is reported as inactive: 22.1%.
For `COc1ccc(/C=C/C(=O)OCC(=O)Nc2cccc(S(=O)(=O)NC3=NCCCCC3)c2)cc1`, the “growth rescue (activation)” value was inactive: -15.5%.
For `O=C(CN1CCN(S(=O)(=O)c2ccc(F)cc2)CC1)Nc1ccccc1C(=O)NC1CC1`, the “growth rescue (activation)” value was inactive: 18.5%.
In the case of `O=C(N/C(=C/c1cccnc1)C(=O)N1CCOCC1)c1ccccc1Cl`, the “growth rescue (activation)” value is reported as inactive: -4.57%.
For `Cn1cc(CN2CCC(C(O)c3cccs3)CC2)c(-c2cccc(Cl)c2)n1` (configuration not stated), the “growth rescue (activation)” value was inactive: 19.8%.
For `O=C(COC(=O)c1ccc(S(=O)(=O)N2CCCC2)cc1)NCc1cccs1`, the “growth rescue (activation)” value was inactive: -15.3%.
In the case of `COc1ccc(Cl)cc1C(=O)Nc1ccc(S(N)(=O)=O)cc1`, the “growth rescue (activation)” value is reported as inactive: -3.47%.
In the case of `COc1cc(CNc2ncnc3c2ncn3[C@H]2CN(Cc3cccs3)C[C@@H](CO)O2)cc(OC)c1OC`, the “growth rescue (activation)” value is reported as inactive: 17.8%.
With `Cn1nc(C(=O)Nc2ccc(-n3cnnn3)cc2)c2ccccc2c1=O` the “growth rescue (activation)” value was inactive: 1.35%.
In the case of `CCCC(C(=O)NNC(=O)c1cc(C)oc1C)c1ccccc1` (configuration not stated), the “growth rescue (activation)” value is reported as inactive: 17%.
With `CN(Cc1ccccc1)C(=O)CCc1ccccc1` the “growth rescue (activation)” value was inactive: 42.7%.
With `Oc1c(Br)cc(C=Nc2ccc3nc(-c4ccccc4)[nH]c3c2)c(O)c1Br` the “growth rescue (activation)” value was inactive: 1.7%.
For `Fc1cccc(Cc2noc(CN3CCSCC3)n2)c1`, the “growth rescue (activation)” value was inactive: 10.7%.
With `O=C(Nc1ccc(Cl)c(S(=O)(=O)N2CCOCC2)c1)c1ccccn1` the “growth rescue (activation)” value was inactive: 5.23%.
For `O=C(Nc1ccc(Br)cc1)c1cc(-c2cccs2)on1`, the “growth rescue (activation)” value was inactive: -5.03%.
In the case of `O=C(O)c1cc(-c2ccc(N3CCOCC3)cc2)nn1-c1ccccc1Cl`, the “growth rescue (activation)” value is reported as inactive: -19.3%.
In the case of `CC1(C(=O)NS(=O)(=O)c2ccc(Cl)s2)CCN1C(=O)C1(c2ccccc2)CCCC1` (configuration not stated), the “growth rescue (activation)” value is reported as inactive: -8.4%.
In the case of `CC(C)c1ccc(NC(=O)COc2ccccn2)cc1`, the “growth rescue (activation)” value is reported as inactive: -12%.
With `COc1ccc2[nH]c(=O)c(CNc3ccc(C)cc3C)cc2c1` the “growth rescue (activation)” value was inactive: -10.1%.
For `Cc1ccc(NC(=O)CCNC(=O)c2ccccc2)cc1F`, the “growth rescue (activation)” value was inactive: -10.9%.
With `CCOc1cc(/C=C2\COc3ccccc3C2=O)ccc1OCC(=O)N(C)C` the “growth rescue (activation)” value was inactive: 17.4%.
With `CCOc1ccc(C(=O)Nc2ccc(-c3nc4ccccc4[nH]3)cc2)cc1[N+](=O)[O-]` the “growth rescue (activation)” value was inactive: 5.92%.
In the case of `COc1ccc(OC)c(NC(=O)CSc2nnnn2-c2ccccc2F)c1`, the “growth rescue (activation)” value is reported as inactive: 5.68%.
For `Cc1ccc(C)c(NC(=O)C(Sc2nc3ccc(C)cc3[nH]2)c2ccccc2)c1` (configuration not stated), the “growth rescue (activation)” value was inactive: 19.5%.
In the case of `COc1ccccc1CN1CC(C(=O)NCCn2nc(C)cc2C)CCC1=O` (configuration not stated), the “growth rescue (activation)” value is reported as inactive: 6.43%.
For `O=C(NNC(=O)c1cc2ccccc2o1)c1ccc(F)cc1`, the “growth rescue (activation)” value was inactive: -16.7%.
With `Nc1cc(=O)[nH]c(SCCSc2ccccc2F)n1` the “growth rescue (activation)” value was inactive: -1.6%.
With `COc1ccc(N2CC(C(=O)N3CCN(c4ccccc4F)CC3)CC2=O)cc1` (configuration not stated) the “growth rescue (activation)” value was inactive: 15.7%.
With `CCOc1ccc(C(=O)NC(=S)NCc2cccnc2)cc1` the “growth rescue (activation)” value was inactive: 6.1%.
In the case of `COC(=O)c1ccccc1NC(=O)COc1ccc2c(c1)OCO2`, the “growth rescue (activation)” value is reported as inactive: 24.6%.
